{
  "source": "PubChem BioAssay AID651820",
  "about": "(National Center for Advancing Translational Sciences (NCATS), 2012)",
  "note": "Values joined by “and” are separate entries in the source; they are usually repeats but may differ in a detail not shown here. Equal entries are not always repeated. The campaign covered roughly 340,000 compounds. About 12,000 (3.5%) were called active. Inconclusive results, whose numbers are uncertain, are shown with a selection of clear calls. The call rests on the fitted dose curve; in most records, active means well fitted inhibition curve with a large enough effect; inconclusive means small, poorly fitted or top-dose-only effect, or another doubt; inactive means no such curve, though single readings can be large or run the other way. Potencies of inconclusive entries are left out as doubtful fits. More than one record can exist for a structure, and the calls need not agree. Potency means the concentration at half of the fitted maximal effect; tags describe the fitted curve by direction and shape.",
  "data": [
    {"assay": "qHTS Assay for Inhibitors of Hepatitis C Virus (HCV)", "settings": "Huh7.5.1 HCVcc-Cre (HCVcc is cell-culture hepatitis C virus) infection, luciferase reporter, 44 h; series mostly up to 41.8 µM", "summary_of_the_method": "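Antiviral activity was scored by luciferase reporter output from cells infected with HCVcc-Cre (~0.5 moi) in presence of compound, 44 h infection period, cells seeded 1,000/well 4 h prior.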", "values": [
      {"compound": "Cc1ccc(S(=O)(=O)N(CC(=O)Nc2ccccc2C(=O)O)c2ccc(Cl)cc2)cc1", "Potency": "inconclusive [inhibitor, single point]"},
      {"compound": "O=C(O)c1cc(NCc2ccc3c(c2)OCO3)ccc1N1CCOCC1", "Potency": "inactive"},
      {"compound": "CCOc1ccc(/C=N/NC(=O)c2ccc(Cn3cc(Br)cn3)o2)cc1", "Potency": "inactive"},
      {"compound": "CCOC(=O)C1(Cc2cccc(OC)c2)CCCN(C(=O)c2ccc(OC)o2)C1", "note": "(configuration not stated)", "Potency": "inconclusive [inhibitor, single point]"},
      {"compound": "Cc1noc(C)c1COC(=O)c1cc2c3ccccc3n(C)c2s1", "Potency": "active: 11.2 µM"},
      {"compound": "Cc1ccc(C(=O)NC(=S)NCc2cccnc2)cc1C", "Potency": "inactive"},
      {"compound": "COCCCNC(=O)CC(=O)N/N=C\\c1ccc(SC)cc1", "Potency": "inactive"},
      {"compound": "Cc1ccc(-c2nn(C)c(=O)c3ccccc23)cc1S(=O)(=O)N1CCCC1", "Potency": "inconclusive [inhibitor, single point]"},
      {"compound": "COc1ccc(/C=N/OCC(=O)N2CC3(C)CC2CC(C)(C)C3)cc1", "note": "(configuration not stated)", "Potency": "inconclusive [inhibitor, partial curve]"},
      {"compound": "COc1cc2[nH]c3c(N4CCN(c5ccccn5)CC4)ncnc3c2cc1OC", "Potency": "active: 6.31 µM"},
      {"compound": "COc1ccc(-c2nc3c4ccccc4ccn3c2CN2CCOCC2)cc1OC", "Potency": "inconclusive [inhibitor, partial curve]"},
      {"compound": "Cc1cc(=O)oc(C)c1C(=O)NCC1CCCO1", "note": "(configuration not stated)", "Potency": "inconclusive [inhibitor, single point]"},
      {"compound": "O=C(COc1ccccc1)Nc1ccc(S(=O)(=O)NCc2ccco2)cc1", "Potency": "inconclusive [inhibitor, single point]"},
      {"compound": "COc1ccc(S(=O)(=O)N2CCN(c3ccc(F)cc3)CC2)cc1C(=O)N1CCCC1", "Potency": "inconclusive [inhibitor, single point]"},
      {"compound": "CSc1ccccc1NC(=O)c1noc2c1CCC2", "Potency": "inconclusive [inhibitor, single point]"},
      {"compound": "CCn1c(=O)c2cc(C(=O)N(C)c3cc(C)ccc3OC)sc2c2ccccc21", "Potency": "active: 12.6 µM"},
      {"compound": "COCCNC(=O)c1c(NC(=O)c2ccc(Br)o2)n(Cc2ccccc2)c2nc3ccccc3nc12", "Potency": "inconclusive [inhibitor, partial curve]"},
      {"compound": "CSc1nc2ccccc2n1Cc1c(Cl)cccc1Cl", "Potency": "inconclusive [inhibitor, full curve, poor fit]"},
      {"compound": "O=C(O)c1ccc(-n2c(-c3ccccc3)n[nH]c2=S)cc1", "Potency": "inactive"},
      {"compound": "CCOC(=O)c1c(NC(=O)c2ccco2)sc2c1CCCCC2", "Potency": "inconclusive [inhibitor, single point]"},
      {"compound": "CC(C)SCCCOc1ccc(C(C)(C)C)cc1", "Potency": "inactive"},
      {"compound": "CC(C)Cc1nc(N2CCN(C(=O)c3ccco3)CC2)c(C#N)c2c1CCC2", "Potency": "inconclusive [inhibitor, partial curve]"},
      {"compound": "O=C(Nc1ccc(Cl)c(Cl)c1)Nc1cc(S(=O)(=O)N2CCOCC2)ccc1N1CCCC1", "Potency": "inconclusive [inhibitor, partial curve, poor fit]"},
      {"compound": "CC1CCCCN1S(=O)(=O)c1ccc(NC(=O)c2cccs2)cc1", "note": "(configuration not stated)", "Potency": "inconclusive [inhibitor, single point]"},
      {"compound": "CSc1ccc(CNC(=O)C2CCC(=O)N(CCc3cccc(F)c3)C2)cc1", "note": "(configuration not stated)", "Potency": "inactive"},
      {"compound": "Cc1ccccc1C(=O)Nc1nnc(-c2ccco2)s1", "Potency": "active: 11.2 µM"},
      {"compound": "O=C(NCC(c1ccc(F)cc1)N1CCOCC1)c1ccc([N+](=O)[O-])o1", "note": "(configuration not stated)", "Potency": "inconclusive [inhibitor, partial curve]"},
      {"compound": "Cc1no[n+]([O-])c1COc1cccc(/C=N/Nc2nncn2N)c1", "Potency": "inactive"},
      {"compound": "Cc1ccc2c(c1)c1nc3ccccc3nc1n2CCN1CCOCC1", "Potency": "active: 12.6 µM"},
      {"compound": "COc1ccccc1CNc1ncnc2c1nnn2Cc1ccccc1", "Potency": "inconclusive [inhibitor, single point]"},
      {"compound": "CC(C)c1nnc(N2C(=O)C(O)=C(C(=O)c3cccs3)C2c2ccccc2)s1", "note": "(configuration not stated)", "Potency": "inactive"},
      {"compound": "N#CCCn1nc(-c2ccccc2)cc1Nc1ccccc1NC(=O)C(F)(F)F", "Potency": "inactive"},
      {"compound": "CCOc1ccc(S(=O)(=O)N2CCCCC2)cc1NC(=O)C1CCC1", "Potency": "inactive"},
      {"compound": "CCOc1ccccc1C(=O)NCCCN1CCN(CCCNC(=O)c2ccccc2OCC)CC1", "Potency": "inactive and active: 10 µM"},
      {"compound": "Cc1ccc(C)c(NC(=O)CN(C)C(=O)CSCc2c(C)noc2C)c1", "Potency": "inconclusive [inhibitor, partial curve]"},
      {"compound": "CCOc1ccc(NC(=O)CN(C)C(=O)c2cc3c(s2)CCC(C)C3)cc1OCC", "note": "(configuration not stated)", "Potency": "inconclusive [inhibitor, single point]"},
      {"compound": "COc1ccccc1CN1CN(S(=O)(=O)c2ccccc2)c2nc3ccccc3nc21", "Potency": "inconclusive [inhibitor, partial curve]"},
      {"compound": "COc1ccc(C(CNC(=O)C(C)(C)Oc2ccc(Cl)cc2)N2CCCC2)cc1", "note": "(configuration not stated)", "Potency": "inconclusive [inhibitor, single point]"},
      {"compound": "O=C(Nc1cccc(-n2cccn2)c1)C1CCCN(Cc2ccccc2F)C1", "note": "(configuration not stated)", "Potency": "inconclusive [inhibitor, single point]"},
      {"compound": "O=C(/C=C/c1ccccc1Cl)OCC(=O)c1ccc[nH]1", "Potency": "inactive"},
      {"compound": "CCOC(=O)c1cnc2ccc(C)cc2c1Sc1ccccc1", "Potency": "inconclusive [inhibitor, single point]"},
      {"compound": "Clc1ccc(CN2CCNCC2)cc1", "Potency": "inconclusive [inhibitor, single point]"},
      {"compound": "COc1ccc(S(=O)(=O)N2CCN(Cc3cccc([N+](=O)[O-])c3)CC2)cc1", "Potency": "inconclusive [inhibitor, single point]"},
      {"compound": "COc1ccc(C2=NO[C@@H]3C(=O)N(c4cccc(C)c4C)C(=O)[C@H]23)cc1OC", "Potency": "inactive"},
      {"compound": "C/C(=N\\NC(=O)c1nc2ccccn2c1C)c1ccco1", "Potency": "inactive"},
      {"compound": "Cc1ccc(NC(=O)c2cccc(S(=O)(=O)N3CCN(c4ccccc4)CC3)c2)nc1", "Potency": "active: 12.6 µM"},
      {"compound": "O=C(Cc1ccc(O)cc1)N/N=C/c1cccnc1", "Potency": "inactive"},
      {"compound": "CCN(CC)S(=O)(=O)c1ccc2oc(C(=O)NCc3ccc(F)cc3)c(C)c2c1", "Potency": "inconclusive [inhibitor, partial curve]"},
      {"compound": "O=C(/C=C/c1ccco1)Nc1cccc2cccnc12", "Potency": "inactive"},
      {"compound": "CC1CC(C)CN(S(=O)(=O)c2ccc(C(=O)N3CCN(c4ccccc4)CC3)cc2)C1", "note": "(configuration not stated)", "Potency": "active: 10 µM"},
      {"compound": "Cc1ccc(NC(=S)N2CCCC(c3nc4ccc(C)cc4[nH]3)C2)c(C)c1", "note": "(configuration not stated)", "Potency": "active: 10 µM"},
      {"compound": "O=C(/C(=C\\c1ccccc1)c1nc2ccccc2[nH]1)c1ccc(Cl)cc1", "Potency": "inconclusive [inhibitor, single point]"},
      {"compound": "CCOC(=O)c1c(C)[nH]c(C)c1C(=O)COC(=O)/C=C/c1ccccc1[N+](=O)[O-]", "Potency": "inconclusive [inhibitor, single point]"},
      {"compound": "CN1CCN(C2CCN(S(=O)(=O)c3ccc(C(C)(C)C)cc3)CC2)CC1", "Potency": "inconclusive [inhibitor, partial curve]"},
      {"compound": "CN(C)CC(C)(C)CNC(=O)C1CCN(Cc2ccccc2O)CC1", "Potency": "inconclusive [inhibitor, single point]"},
      {"compound": "O=C(N1CCOCC1)N1CCC(n2nnc3cc(F)ccc32)CC1", "Potency": "inactive"},
      {"compound": "C#Cc1ccc([C@H]2C=C(C(=O)NCc3ccccc3)O[C@@H](OCC)[C@@H]2CCCO)cc1", "Potency": "inconclusive [inhibitor, single point]"},
      {"compound": "CCOC(=O)Nc1ccc2c(c1)Nc1ccccc1S2", "Potency": "inconclusive [inhibitor, single point]"},
      {"compound": "Cc1ccsc1C(=O)C1CCCN(Cc2cc(F)ccc2-n2cccn2)C1", "note": "(configuration not stated)", "Potency": "inconclusive [inhibitor, single point]"},
      {"compound": "O=C1c2ccccc2N2C(=O)c3ccccc3[C@H]2N1c1ccccc1", "Potency": "inactive"},
      {"compound": "COc1ccc2[nH]c(=O)c(CN(Cc3cccs3)S(=O)(=O)c3cccc4nsnc34)cc2c1", "Potency": "active: 10 µM"},
      {"compound": "CCNc1nc(NCC)nc(OCCNS(=O)(=O)c2cc(C)ccc2C)n1", "Potency": "inconclusive [inhibitor, single point]"},
      {"compound": "COc1ccc(S(=O)(=O)N2CCCCC2)cc1NC(=O)c1ccc(OC)c(OC)c1", "Potency": "inconclusive [inhibitor, single point]"},
      {"compound": "COc1ccc(C2C(C#N)=C(N)N(c3ccccc3)C3=C2C(=O)CCC3)cc1Cn1cc([N+](=O)[O-])cn1", "note": "(configuration not stated)", "Potency": "inconclusive [inhibitor, partial curve]"},
      {"compound": "COCC(=O)Nc1ccc(N2CCOCC2)c(S(=O)(=O)Nc2ccc(OC)cc2)c1", "Potency": "inconclusive [inhibitor, single point]"},
      {"compound": "CCOc1ccc(CCN2CN(C3CCCCC3)CNC2=S)cc1OCC", "Potency": "inactive"},
      {"compound": "Cc1cc(/C=C2/SC(=O)N(CC(=O)OC(C)C)C2=O)c(C)n1C", "Potency": "inconclusive [inhibitor, single point]"},
      {"compound": "CC(=O)c1c(C)oc2ccc(OCc3ccccc3)cc12", "Potency": "inconclusive [inhibitor, single point]"},
      {"compound": "C/C(=N\\NC(=O)c1nn(C)c(C)c1Br)c1cccc(NC(=O)c2ccc(F)cc2)c1", "Potency": "inconclusive [inhibitor, full curve, poor fit]"},
      {"compound": "CCOC(=O)C1(Cc2ccc(OC)cc2)CCN(C(=O)CC2CCC(=O)N2)CC1", "note": "(configuration not stated)", "Potency": "inactive"},
      {"compound": "CN1CCN(C(=S)Nc2cc([N+](=O)[O-])ccc2Cl)CC1", "Potency": "inactive"},
      {"compound": "CCN(CC)c1ccc(NC(=O)/C=C\\c2ccccc2Cl)cc1", "Potency": "inconclusive [inhibitor, full curve]"}
    ]}
  ]
}
